In the supplement of paper PMC11417369:
± gives the standard deviation of the averaged measurements. The list shows a part of the results.

Test system: PfAP2-EXP AP2 domain (GST-tagged)
Experiment: gcPBM binding intensity (ln(normalized median fluorescence intensity)); higher = stronger DNA binding
In short: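 The highest Masliner-normalised natural-log median intensity across replicate spots of either probe orientation is reported as binding intensity. GST-tagged P. falciparum DNA-binding domains expressed in E. coli were applied for 1 h to an Agilent 4 × 180k array of primer-extended double-stranded 36-bp intergenic genomic probes plus negative controls, and bound protein was detected with Alexa488 anti-GST antibody and scanned at 488 nm.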

Sequence	gcPBM binding intensity (ln)
AAAAAAAAAAAAAAATTAAAGTAATGGAAAAAAAAA [CACACA_negctrl_site1666]	8.3 ± 0.61
TATATTATAAACATATGTACATATGTATAAATACAT [XGTACX_site722]	8.56 ± 0.3
AACATATATATATACACACACATATATATATGAAAT [CACACA_site279]	8.68 ± 0.35
ATTATTAATATTATATGTACGCACTATATCAAGGCT [XGTACX_site6468]	8.68 ± 0.29
ACGATGCATTAATCTGCACACCACAACAAAACGTTT [CACACA_site899]	8.85 ± 0.25
AATCATTTTATTATCCTAACAAAAAAAAAATATATT [CACACA_negctrl_site115]	8.04 ± 0.45
ACAACGCGTTAAATGTGTACATATTTATAAGTATAT [XGTACX_site8777]	8.71 ± 0.42
AGCTATGTATTCTACACACACATACAGACATATATA [CACACA_site3428]	8.72 ± 0.38
TTTGCATTTCTTAATTGTACTTAAAAAAAAAATAAT [XGTACX_site758]	8.28 ± 0.38
TACACGCTAAAATACACACACACACCCACATATATA [CACACA_site4153]	8.57 ± 0.49
TTCCCTCCTCAAAATTGTACTAGAATAATAACATAA [XGTACX_site8765]	8.5 ± 0.51
TTTTTTAAACATATTATGTGTATTACATAGTTATGC [XGTACX_negctrl_site596]	8.15 ± 0.26
TTATTATATTAAAATTGTACTTGCTTTCAATATGAT [XGTACX_site5305]	8.23 ± 0.35
TTATAATATTATAAAATAACATTTATTAATTATTGG [CACACA_negctrl_site1794]	8.34 ± 0.55
TAAACGTTATATAGTGCATGTCATATTTTATTATAT [TGCATGCA_site935]	8.68 ± 0.26
TTCCAAAAAATTATTACACACATATGGGCACATATA [CACACA_site679]	8.38 ± 0.32
TATACATACATACATACACACACACCGATATATACA [CACACA_site8184]	8.78 ± 0.42
AATGTTATTTGTTTATCACACATTAGGATGTTTATA [CACACA_site5710]	8.46 ± 0.27
TATAAAATTAAACAAAGTACTAGACATATATATAGA [XGTACX_site3247]	8.77 ± 0.39
ATTCTATAATATAAGAGTACTTATTTTTTTTAATTT [XGTACX_site7671]	8.28 ± 0.26
TGCCTATTTTGGATGTGTACACATATATATATTTAT [XGTACX_site6741]	8.88 ± 0.42
ACAAAAAAACATGAAACACACACAAATATATATATA [CACACA_site8566]	9.68 ± 0.27
TGTTTCTGCTCTGGACATTTTTAAAAAAGGGAAAGC [CACACA_negctrl_site1463]	8.75 ± 0.41

Sequence	gcPBM binding intensity (ln)
ACGCTAATTATGTGCACACAAATTAAAGGTCTACAA [CACACA_site147]	8.95 ± 0.25
AAAAAAAAAAAAAACACACACACAAGAGTATATAAA [CACACA_site6580]	8.5 ± 0.62
TTATATATTTTTTTTTGTACATAGAAGAGGGAAAAA [XGTACX_site2178]	8.66 ± 0.27
ATGAATTTATTACATTGTACATTTTTAAAAGGTTAC [XGTACX_site124]	8.45 ± 0.42
ACAAGGAATATATAAGATAATTTTAAATATAACACG [CACACA_negctrl_site1734]	8.57 ± 0.36
ATATATATAATTTTTACACACGCAATAAATATATAT [CACACA_site218]	8.55 ± 0.43
TTATAATAAAGAGGAGTGCAAAAAAAAAAAAAAAAA	8.34 ± 0.37
AATCAAAATATATCTACACACATTTAAGTAACACAT [CACACA_site3482]	8.54 ± 0.4
TAAATATCAAAACACACACACAAAAGTGAATAAATA [CACACA_site3762]	8.71 ± 0.49
AAAAAAAAAAAAAACACACACACACCCACATATACA [CACACA_site2663]	8.53 ± 0.2
ATTTTTTTCTTAGGAGTGCACTTATATTTATTTTAT	9.12 ± 0.11
TATTAATTAAACCATACACACATAACTTTTTTATAA [CACACA_site6526]	8.29 ± 0.38
TAAAGAGAAAAACATACACACACAACAAAATATGTA [CACACA_site8872]	8.78 ± 0.55
AGGAACATAAGCAATGTATAAACATAAAACTATAAT [CACACA_negctrl_site1832]	8.76 ± 0.52
TATAAGGTGTCCTATACACACTCCAATAAATATATA [CACACA_site2091]	8.38 ± 0.4
AATAATTTTTAAATATAAACATTTTTTTTTTTTTTT [GTGCAC_negctrl_site532]	8.12 ± 0.18
ATTAAATGCACATATACACACACCCAATTTTAAGTT [CACACA_site3049]	8.8 ± 0.23
ACAAAATAAACCACGTGTACAAATTTATAATGTGTA [XGTACX_site1153]	8.71 ± 0.5
ATATATATATATTCCACACACACACCCAAAAAAAAA [CACACA_site3649]	9.885 ± 0.078
ATAAAATATTAGACATTTATTAATATTACACATATC [XGTACX_negctrl_site364]	8.23 ± 0.34
TTTTATTTTTTATTTGCACACAATATGTAAAAAAAT [CACACA_site2927]	8.71 ± 0.16
ATATTTATGGAAAAAGAACACACAATCAAACAAAAA [CACACA_site9233]	8.98 ± 0.5
